Data: paper PMC12040169 (PLOS Biology, 2025)
The list shows a part of the results.

Test system: T1, C. trachomatis L2/434/Bu expressing GFP (CTL2-GFP)
T1 construct: L2/434/Bu GFP intracellular growth in HeLa cells
Design: species or system HeLa; C. trachomatis total inclusion area by high-content imaging, normalised to DMSO
Details: total inclusion area; 28.5 h, 10 µM; inhibitor
Method in brief: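 Post-fluorescence-read fixation, DNA staining with Hoechst and high-content imaging; GFP inclusion area and number per well, and nuclei counts, used as proxies for bacterial growth and host viability.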

SMILES	% of control remaining
O=C(N/N=C/c1ccc(O)c(I)c1)c1ccncc1 [CBK262144]	101.922
CCN(C)C(=O)c1cn2cc(-c3cc(C)oc3C)n(C)c(=O)c2n1 [CBK307494]	63.893
CC(C)(C)c1cc(C(=O)N/N=C/c2ccc(O)c([N+](=O)[O-])c2)[nH]n1 [CBK263844]	112.142
Cc1ncccc1-c1cc2cccnc2n1CCC(=O)NC1CC1 [CBK282690]	83.8461
CCOc1ccsc1C(=O)Nc1ccccc1N1CCCNCC1 [CBK036354T]	91.8824
O=C(Cn1c2ccccc2c(=O)c2ccccc21)Nc1ccc(-n2cncn2)nc1 [CBK295350]	40.1262
O=C(O)c1ccc(N2C(=O)c3ccc(Oc4ccc(S(=O)(=O)c5ccc(C(=O)O)cc5)cc4)cc3C2=O)cc1 [CBK263603]	110.364
O=C(CCCn1ccnc1)Nc1ccc(OC2CCCC2)cc1 [CBK281986]	83.1431
C/C(=N\NC(=O)c1nc(-c2ccccc2)cc(-c2ccccc2)n1)c1ccc(F)cc1 [CBK262826]	100.611
COc1ccccc1OCC(=O)Nc1cnc(-c2cccc(C)c2)c(-c2cccnc2)n1 [CBK037112]	119.908
COc1cccc(-n2ncc(-c3cccnc3)n2)c1 [CBK112813]	96.1864
CSc1cccc(NC(=O)c2sc3nc(C)cc(C)c3c2N)c1 [CBK115349]	100.085
O=C(Cc1n[nH]c(=O)[nH]c1=O)N/N=C/c1ccc(C(=O)O)cc1 [CBK263525]	91.6744
CC(O)Cc1nnc(SCC(=O)c2ccc([N+](=O)[O-])cc2)n1-c1ccccc1 (stereo not shown) [CBK267389]	101.636
COc1cccc(C(NC(=O)Cc2ccc(-n3nnnc3C)cc2)c2ccccc2)c1 (stereo not shown) [CBK285605]	97.0375
CC(=O)Nc1cccc(NC(=O)c2ccc(CN3CCc4ccccc4C3)cc2)c1 [CBK269534]	95.3784
CC(C)CCC(=O)Nc1ccc(N2CCN(C(=O)c3ccccc3C(F)(F)F)CC2)nn1 [CBK138629]	77.407
COc1ccc(OC)c(S(=O)(=O)N2CCN(C(=O)c3cc(-c4ccncc4)nc4c(C)cc(C)cc34)CC2)c1 [CBK267778]	102.396
O=S(=O)(NCCc1c[nH]c2ccccc12)c1cccc2nsnc12 [CBK057456]	103.657
COc1ccc(C2CC(c3ccc(NS(C)(=O)=O)cc3)=NN2C(=O)CCCC(=O)O)cc1 (stereo not shown) [CBK297780]	108.483
COc1ccc(-c2cnc(NCC3CC3)c(C(=O)NCCc3c[nH]c4ccccc34)c2)cc1 [CBK076349]	99.9973
CC1CCc2n[nH]c(C(=O)NCCCc3ccccn3)c2C1 (stereo not shown) [CBK283194]	104.186
Cc1ccc(Sc2ncccc2C(=O)Nc2ccnn2Cc2cccnc2)cc1C [CBK296980]	91.2246
Cc1cc(C)nc(NC2=NCCN2C(=S)Nc2ccccc2)n1 [CBK266481]	99.4632
CC(=O)NCCCCCC(=O)N1CCN(c2ccc(C(F)(F)F)cc2)CC1 [CBK091312]	91.2336
FC(F)(F)c1cc(-c2cn3ccnc3c(N3CCOCC3)n2)cc(C(F)(F)F)c1 [CBK066396]	67.2574
O=C(NC(/C=C/c1ccccc1)c1cc([N+](=O)[O-])c2cccnc2c1O)C1CCCCC1 (stereo not shown) [CBK265333]	89.3814

SMILES	% of control remaining
Cc1cc(C(=O)Nc2ccccc2N2CCOCC2)c(C)o1 [CBK057243]	67.2975
Cc1ccccc1CN1CCC(NC(=O)Cn2cc(Br)ccc2=O)CC1 [CBK305716]	131.871
Cc1nn(Cc2c(F)cccc2Cl)c(C)c1NC(=O)CCCC(=O)O [CBK286838]	68.5598
Nc1ncc(-c2cccc3ccccc23)nc1NCc1ccccc1 [CBK063565]	62.3406
O=C(Cn1cc(C(=O)NCc2ccc(F)cc2)ccc1=O)NC1(c2ccccc2)CCCC1 [CBK286081]	90.3975
Cc1c2c(nn1C)CSc1ccccc1C2=O [CBK006517]	75.7436
O=C(Nc1ccc(Cl)cc1)N1CCCCC1CO (stereo not shown) [CBK156179]	93.1296
CC1(C)O[C@@H]2O[C@@H](C(O)CNC(=O)c3ccccc3)[C@@H](O)[C@@H]2O1 (stereo partly shown) [CBK008736]	59.8386
CCN(CC)CCn1c2ccccc2c2nc3cc(C(=O)O)ccc3nc21 [CBK297496]	71.6081
COC(=O)n1c(=O)oc2ccc(Cl)cc21 [CBK026774]	39.2593
Cc1nn(Cc2cccc(C(=O)NCc3ccccn3)c2)c(C)c1Cl [CBK265755]	123.617
CSCCCNC(=O)N(CCC#N)C1CCCCC1 [CBK156348]	91.8595
CCN1CCCC1CNC(=O)c1cc(Br)cnc1N(C)C(C)=O (stereo not shown) [CBK076524]	112.898
O=C(CCOc1ccccc1)Nc1cc(N2CCNCC2)ncn1 [CBK004225T]	77.6012
CC(C)Oc1ccc(C(=O)N2CCC(COc3ccc(-c4ccc(S(C)(=O)=O)cc4)cn3)CC2)nc1 [CBK161989]	48.908
Nc1nnc(SCc2nc3ccccc3n2Cc2ccccc2)s1 [CBK264649]	109.546
NC(=O)C1CCN([C@H]2[C@@H]3OC[C@@H](O3)[C@@H](NCc3ccc(F)cc3)[C@@H]2O)CC1 [CBK288830]	90.6484
CCOC(=O)N1C(=O)c2ccccc2NC1(C(F)(F)F)C(F)(F)F [CBK025725]	73.6609
COc1cccc(-c2cnc(N)c(N3CCN(CCN(C)C)CC3)n2)c1 [CBK063561]	110.482
CC(C)CCc1ccc(C#N)c(=O)[nH]1 [CBK016227]	103.281
COc1cc(-c2cncc(N3CCCC3CO)n2)cc(OC)c1OC (stereo not shown) [CBK065389]	136.863
COc1ccc([N+](=O)[O-])cc1-c1ccc(/C=N/NC(=O)Cn2nnnc2N)o1 [CBK262505]	109.939
CC(C)c1ccc(S(=O)(=O)NC(CC(=O)O)c2ccccc2)cc1 (stereo not shown) [CBK266217]	118.05
CN1CCN(c2nc(NS(=O)(=O)c3ccc(OC(F)(F)F)cc3)cc3ccccc23)CC1 [CBK002978C]	95.701
CN(C)S(=O)(=O)c1ccc(C(=O)C2=C(O)C(=O)N(Cc3cccnc3)C2c2ccc(F)cc2)cc1 (stereo not shown) [CBK264715]	114.766
C=CCn1c(Cc2csc(NC(=O)c3ccc(OC(F)F)cc3)n2)n[nH]c1=S [CBK295338]	109.716
Cc1nc2c(c(=O)[nH]1)CC[C@@H]1CN(C(=O)c3ccccc3F)C[C@H]21 [CBK284410]	74.9147

SMILES	% of control remaining
O=C(NCc1ccccn1)c1cc2cc(F)ccc2[nH]1 [CBK107276]	81.9323
O=C1NC2(CCc3ccccc31)CCN(C(=O)c1ccc(F)cc1)C2 (stereo not shown) [CBK285308]	88.9659
Fc1ccc(N(CCCN2CCN(c3ncccn3)CC2)c2ccc(F)cc2)cc1 [CBK025127C]	77.7533
COc1ccc(Cn2cnc3[nH]ncc3c2=O)cc1 [CBK288049]	93.0411
Brc1ncccc1OCc1ccccc1 [CBK001458]	66.882
Cc1ccc(-c2nnc([C@H]3CCN(Cc4ccc(CO)o4)C3)o2)cc1 [CBK289399]	106.121
O=C(CN1CCNCC1)Nc1ccc(Oc2ccccc2)cc1 [CBK267191C]	137.831
[O-][n+]1cc(-c2ccccc2)[n+]([O-])c2c1CCCC2 [CBK264847]	115.374
O=C(NCCc1cccs1)N1CCC2(CC1)OCCc1c2[nH]c2ccccc12 [CBK047129]	98.8327
O=P(O)(O)Cc1ccccc1-c1ccccc1 [CBK012659]	26.4765
CNC(=O)NC(=O)C(C)NCC1(c2cc(C)ccc2OC)CCOCC1 (stereo not shown) [CBK306318]	41.9236
Cc1sc2nc(SCc3nc4ccccc4[nH]3)n(Cc3ccco3)c(=O)c2c1C [CBK267554]	93.3846
O=C(O)C(Cc1ccccc1)N1C(=O)c2cccc([N+](=O)[O-])c2C1=O (stereo not shown) [CBK115372]	100.627
CN1CCC(NC(=O)c2cccc(NC(=O)C3CCCCC3)c2)C1=O (stereo not shown) [CBK306228]	68.9617
O=C(O)C1CC1C(=O)N1CCC2(CC1)OCCc1c2[nH]c2ccccc12 (stereo not shown) [CBK047167]	82.1279
CC(=O)c1ccc(-c2cnc3[nH]c(=O)n(C4CCCCC4)c3n2)s1 [CBK064382]	111.493
Cc1csc(NC(=O)c2cccn(Cc3cccc([N+](=O)[O-])c3)c2=O)n1 [CBK294414]	120.492
O=C(O)CCCC(=O)Nc1cc([N+](=O)[O-])ccc1O [CBK265592]	104.633
CCCNC(=O)CSc1ncccc1C(=O)O [CBK287202]	101.93
O=C(CCc1cccnc1)N1CCC(F)CC1 [CBK200275]	91.0886
O=C(/C=C/c1cccc2ccccc12)N1CCCCCC1 [CBK264092]	107.505
O=C(Cc1ccc(Cl)cc1Cl)NCCc1c[nH]c2ccc(Cl)cc12 [CBK159744]	84.0399
CC(=O)Nc1nc2cc3c(cc2s1)OCCO3 [CBK287618]	82.0377
COc1ccc(Oc2nccc(N3CCCN(CCCO)CC3)n2)cc1OC [CBK084158]	82.6223
CC(C)Nc1cc(OC2CCN(C)CC2)ncn1 [CBK113280]	104.951
